Measurements: PubChem BioAssay AID488969 (Vanderbilt High Throughput Screening Facility, 2010)
The full ranking holds about 110,000 compounds; the median of “z-score” is about -0.1, and the highest 2% start at about 2. Some of the results follow.

The molecules below were run against Metabotropic glutamate receptor 8 (Rattus norvegicus) (UniProt P70579) (assay: mGluR8 Gi/Go-coupled signaling modulation – cell-based, rat, thallium flux, HTS, primary screen (AID 488969)). Settings: HEK293 rat mGluR8, GIRK (G protein-gated inwardly rectifying potassium channel) thallium flux, FluoZin2; at 10 µM; stronger effect = higher value; submaximal glutamate (EC20) added with thallium.
Chain of UniProt P70579 (P70579 whole entry, looked up): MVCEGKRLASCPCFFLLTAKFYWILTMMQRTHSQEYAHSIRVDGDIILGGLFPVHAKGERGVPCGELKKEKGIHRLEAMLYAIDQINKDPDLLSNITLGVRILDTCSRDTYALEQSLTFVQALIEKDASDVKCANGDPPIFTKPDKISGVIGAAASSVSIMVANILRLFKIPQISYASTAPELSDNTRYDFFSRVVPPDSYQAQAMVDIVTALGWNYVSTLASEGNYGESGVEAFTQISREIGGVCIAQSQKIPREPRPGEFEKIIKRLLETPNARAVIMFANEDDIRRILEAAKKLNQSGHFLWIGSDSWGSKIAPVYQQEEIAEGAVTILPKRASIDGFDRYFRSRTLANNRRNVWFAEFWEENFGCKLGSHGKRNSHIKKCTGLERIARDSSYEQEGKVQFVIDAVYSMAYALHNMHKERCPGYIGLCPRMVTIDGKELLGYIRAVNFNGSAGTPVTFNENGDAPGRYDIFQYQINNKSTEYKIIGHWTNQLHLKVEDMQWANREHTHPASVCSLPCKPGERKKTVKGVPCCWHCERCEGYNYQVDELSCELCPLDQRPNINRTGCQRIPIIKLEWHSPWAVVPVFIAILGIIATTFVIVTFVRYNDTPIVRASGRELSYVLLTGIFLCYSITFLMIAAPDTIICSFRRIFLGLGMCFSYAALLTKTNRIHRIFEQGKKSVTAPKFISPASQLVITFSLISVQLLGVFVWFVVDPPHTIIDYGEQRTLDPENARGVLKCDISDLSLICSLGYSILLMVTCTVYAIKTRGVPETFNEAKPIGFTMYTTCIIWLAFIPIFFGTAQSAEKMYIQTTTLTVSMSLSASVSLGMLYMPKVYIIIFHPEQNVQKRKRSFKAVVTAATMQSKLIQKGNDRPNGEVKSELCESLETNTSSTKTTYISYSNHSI

Row | SMILES | z-score
1 | Cc1c(NC(=O)c2cc(CC(C)C)on2)c(=O)n(-c2ccccc2)n1C | 0.425
2 | CC1=C(C(=O)Nc2ccc(Br)cc2)C(c2ccco2)NC(=O)N1 (centres undefined) | -0.0578
3 | CC(C)(C)C(=O)NC(=S)Nc1ccc(F)cc1 | -0.105
4 | Nc1ccc(C23CC4CC(CC(O)(C4)C2)C3)cc1 | -0.112
5 | Cc1ccc(NC(=O)CC2SC3=NCCCN3C2=O)c(C)c1 (centres undefined) | -0.162
6 | CCOC(=O)N1CCN(C(=O)CN(c2ccc(OCc3ccccc3)cc2)S(C)(=O)=O)CC1 | 0.0453
7 | Cc1cccn2c(=O)c3cc(C(=O)NCC4CCCO4)c(=N)n(CCN4CCOCC4)c3nc12 (centres undefined) | -0.225
8 | Cc1ccc(S(=O)(=O)N2CCCCC2)cc1NC(=O)Cc1c[nH]c2ccccc12 | -0.0663
9 | COC(=O)c1cc2c(s1)-c1ccccc1CC2 | -0.0379
10 | CC1CCN(CCc2nc3cc(NS(=O)(=O)c4ccc(F)cc4)ccc3n2C)CC1 | -0.615
11 | Cn1c(=O)c2[nH]cnc2n(-c2ccccc2)c1=O | -0.142
12 | COCCCNS(=O)(=O)c1ccc2c3c(cccc13)C(=O)S2 | -0.0688
13 | CCOC(=O)Nc1ccc2c(c1)N(C(=O)CCN1CCN(CCO)CC1)c1ccccc1CC2 | -0.118
14 | COc1cc(=O)n(C)c2ccccc12 | 0.577
15 | Oc1ccc(-c2csc(Nc3cccnc3)n2)cc1 | -0.116
16 | Cc1cc(=O)c(C(=O)O)cn1Nc1ccc(Cl)cc1 | -0.553
17 | CCC(c1nnnn1Cc1ccccc1)N(Cc1cc2cc(OC)ccc2[nH]c1=O)CC1CCCO1 (centres undefined) | -0.388
18 | COc1ccccc1Oc1ccc(S(=O)(=O)Nc2cccnc2)cc1 | 0.347
19 | Cc1cc(NC(=O)c2ccc(F)cc2F)n(-c2nc3ccccc3[nH]2)n1 | 0.0238
20 | COc1ccc(CCNC(=O)C2CCN(S(=O)(=O)c3cccc4nonc34)CC2)cc1OC | -0.0875
21 | COc1ccc(C)c2sc(NC(=O)C3=COCCO3)nc12 | -0.0797
22 | Cc1cc(Cl)ccc1NC(=S)N1CCN(Cc2ccccc2)CC1 | 0.0495
23 | O=C(/C=C/c1cccc(Cl)c1)Nc1ncccn1 | -0.216

Row | SMILES | z-score
24 | CC(NC(=O)COc1ccc(/C=N/NS(=O)(=O)c2ccccc2)cc1)c1ccccc1 (centres undefined) | -0.17
25 | Cc1cccc(NC(=S)NCC2CCCO2)c1 (centres undefined) | 0.0836
26 | Cc1cc(OCc2nn[nH]n2)c2c(C)c(CC(=O)O)c(=O)oc2c1 | 1.62
27 | COc1cc(C)ccc1OCCOc1cc(C)ccc1Cl | -0.0859
28 | Nc1c(-c2cccs2)cnn1-c1nc(-c2ccc(F)cc2)cs1 | -0.78
29 | CCOC(=O)CSc1nnc(Cc2cc(=O)[nH]c(=O)[nH]2)n1-c1ccc(Cl)cc1 | -0.0375
30 | COc1ccc(Cn2c(-c3ccco3)nc3oc4ccccc4c(=O)c3c2=O)cc1 | 0.403
31 | CCc1ccc(C2CC(c3ccccc3)n3ncnc3N2)cc1 (centres undefined) | -0.471
32 | O=C(CCNC(=O)Cn1cnc2ccccc2c1=O)NCC1COc2ccccc2O1 (centres undefined) | -0.166
33 | COc1ccc(CCNC(=O)c2ccc(-c3ccc([N+](=O)[O-])cc3)o2)cc1OC | -0.544
34 | CN(CC(O)COc1ccc(OCC(O)CN(C)C2CCCCC2)cc1)C1CCCCC1 (centres undefined) | 1.64
35 | COc1ccc(Nc2c(C)cccc2C)cc1 | -0.447
36 | O=C(Nc1ncc2c(n1)-c1ccccc1OC2)c1ccc(Cl)cc1Cl | -0.199
37 | CCOc1ccccc1-n1c(SCC(=O)N2CCCC2)nnc1-c1ccc(O)cc1 | -1.47
38 | N#C/C(=N\Nc1ccc(Cl)cc1)C(=N)N1CCCCC1 | 0.186
39 | O=C(NNC1=C(C(=O)C(F)(F)F)CCC1)c1cccc(O)c1 | 0.0367
40 | Cc1c(Cl)cccc1NC(=O)CN1CCC(NC(=O)C2CCCCC2)CC1 | 0.0323
41 | CCOc1ccc(C(=O)NC(=S)N2CCN(c3ccc(C(F)(F)F)cc3[N+](=O)[O-])CC2)cc1 | 0.854
42 | COc1ccc(N2CCN(C(=S)Nc3cc(C)cc(C)c3)CC2)cc1 | 0.06
43 | COc1ccccc1NC(=O)CSc1c2c(nc3ccccc13)CCC2 | 0.169
44 | Cc1cc(C)cc(N(CC(=O)NCC2CCCO2)S(=O)(=O)c2c(C)noc2C)c1 (centres undefined) | -0.496
45 | O=Cc1cn(-c2ccccc2)nc1-c1cc2cc(O)ccc2oc1=O | 0.061
46 | CC(=O)C1=C(O)C(=O)N(CCCn2ccnc2)C1c1ccc(C)cc1 (centres undefined) | -0.414

Row | SMILES | z-score
47 | COC(=O)c1ccc(NC(=O)C(C)N2C(=O)c3ccccc3C2=O)cc1 (centres undefined) | 0.169
48 | CCOC(=O)CSc1nc2ccccc2c(=O)n1CCC(=O)NCCc1ccc(OC)c(OC)c1 | -0.859
49 | Cc1c(NC(=O)CSc2nc3ccccc3[nH]2)c(=O)n(-c2ccccc2)n1C | -0.097
50 | O=C(N/N=C/C=C/c1ccccc1)c1cnccn1 | -0.12
51 | CCOC(=O)c1cccc(NC(=O)CSc2nnc(CNc3ccc(C)cc3)n2CC)c1 | -2.75
52 | Cc1csc(NC(=O)CSc2nc3sc(C)c(C)c3c(=O)[nH]2)n1 | 0.981
53 | O=C(Cn1c2ccccc2c(=O)c2cc([N+](=O)[O-])ccc21)Nc1ccccc1Cl | -0.278
54 | CSc1ccc(-c2nc(CSCC(=O)NCCCN3CCOCC3)c(C)o2)cc1 | -0.116
55 | Cc1ccc(NC2=C/C(=N\S(=O)(=O)c3cccs3)c3ccccc3C2=O)c(C)c1 | 0.224
56 | O=C(Nc1ccc2c(c1)OCCO2)NC12CC3CC(CC(C3)C1)C2 | 2.32
57 | c1ccc(SCc2nc3ccccc3[nH]2)nc1 | 0.0372
58 | Fc1ccc(CNc2nc3ccccc3n3nnnc23)cc1 | -0.251
59 | CCCOc1ccc(C2=NNC(c3cccs3)=Nc3ccc(OC)cc32)cc1 | -0.471
60 | O=C(Nc1ccc(N2CCCC2)cc1)c1cccc(-c2cc3ccccc3oc2=O)c1 | -0.0126
61 | O=C(C(Cc1ccccc1)n1cccc1)N1CCN(c2cccc(Cl)c2)CC1 (centres undefined) | -0.168
62 | COc1ccc(N2C(=O)C3CCCN3C2=O)cc1 (centres undefined) | 0.0142
63 | CC(=O)c1ccc(NC(=O)C2(c3ccccc3)CCOCC2)cc1 | -0.339
64 | CCC(CO)NC1=C([N+](=O)[O-])C(=O)CC(C)(C)C1 (centres undefined) | 0.08
65 | CN(C)S(=O)(=O)c1cccc(NC(=O)COc2nc3ccccc3nc2N2CCOCC2)c1 | -1.5
66 | CN(C)CCCNC(=S)N1CCn2c(nc3ccccc32)C1 | 0.00738
67 | CCn1c(=O)cc(OCC(=O)NCc2ccc(C)o2)c2ccccc21 | -0.239
68 | Cc1cnc(Sc2ncccc2[N+](=O)[O-])nc1 | -0.0644
69 | O=C(OCc1nc2scc(-c3ccccc3)c2c(=O)[nH]1)c1cc([N+](=O)[O-])ccc1Cl | -1.44
